Patent publication US11767302B2, “Reagents and methods for tetrazine synthesis” (University of Delaware, priority 2020, dated 2023)

Settings: from DSC profile

In the case of `Cc1nnc(SCc2ccc(-c3ccccc3)cc2)nn1` [b-Tz, 3-([1,1′-biphenyl]-4-ylmethylthio)-6-methyl-1,2,4,5-tetrazine], the “shock sensitivity / explosivity flag by modified Yoshida correlation” value is reported as “not flagged as potentially shock sensitive or explosive”.
